Assay results published in PubChem BioAssay AID1671193 (National Center for Advancing Translational Sciences (NCATS), 2021).
Where “and” joins values, the source holds several entries; their conditions need not be identical. Equal values may be shown once. Out of some 150,000 compounds screened, about 180 (0.12%) were called active. Inconclusive results, whose numbers are uncertain, are shown with a selection of clear calls. The call rests on the fitted dose curve; in most records, active means well fitted cell-killing curve with a large enough effect; inconclusive means small, poorly fitted or top-dose-only effect, or effect the other way; inactive means flat fitted curve, though single readings scatter. Potencies of inconclusive entries are doubtful fits and often do not repeat.

Assay: GF-AFC viability counterscreen for inhibitors of alpha-synuclein gene (SNCA) expression; further: nearly all actives have a fitted effect of over 30% in size
Conditions: HEK-293-SNCA-luc viability, GF-AFC fluorescence, 24 h; activity change, negative = cytotoxicity: at 57.1 µM (top of the series) unless noted
From the text: Assay Submitter (PI): Daniel R. Scoles Ph.D.
Department of Neurology, University of Utah, Salt Lake City, Utah
Accumulation of alpha-synuclein is a main underlying pathological feature of Parkinson's disease (PD) and alpha-synucleinopathies, for which lowering expression of the alpha-synuclein gene (SNCA) is a potential therapeutic avenue. Using a cell-based luciferase reporter of SNCA expression we performed a quantitative high throughput screen (qHTS) of 155,885 compounds in dose response. The screening assay was generated using genome editing to insert the luciferase gene downstream and in frame of the SNCA gene in HEK-293 cells (1). A viability counterscreen using GF-AFC was used to eliminate cytotoxic and false positive compounds. After in silico analysis (clustering, removal of frequent hitter nuisance chemotypes), inhibitor compounds from the primary screen were selected for follow up and re-tested at 11-doses in the SNCA-luc cells (luciferase and GF-AFC confirmation), and in CMV-luc expressing cell line to flag general transcriptional repressors.
Described herein are the results of the GF-AFC viability counterscreen for SNCA inhibitors; inactivity (no decrease in fluorescence signal, not cytotoxic) is the desired output for this assay.
1. Dansithong, W., Paul, S., Scoles, D. R., Pulst, S. M., and Huynh, D. P. (2015) Generation of SNCA Cell Models Using Zinc Finger Nuclease (ZFN) Technology for Efficient High-Throughput Drug Screening. PLoS ONE 10, e0136930.
SEQUENCE No. (e.g., 1, 2, 3, etc.); […] (e.g., Cells, Incubation, Reagent, etc.); VALUE; DESCRIPTION
1; Cells; 4 uL; Dispense 1500 HEK-293-SNCA-luc cells/well into Greiner 1536-well white / solid bottom tissue culture treated plate. The plate was covered with metal lids with gas-exchange holes.
2; Incubate; 24 hours; Incubate at 37C, 5% CO2, 95% RH.
3; Compounds; 23 nL; Compounds and controls were transferred via a Kalypsys Pin Tool (Wako USA) equipped with a 1536-slotted pin array. The plate was covered with metal lids with gas-exchange holes.
4; Incubate; 24 hours; Incubate at 37C, 5% CO2, 95% RH.
5; Dispense; 1 uL; Dispense Gly-Phe-7-amino-4-trifluoromethylcoumarin (GF-AFC, prepared at 125 uM in PBS) was added. The plate was covered with metal lids with gas-exchange holes.
6; Incubate; 30 min; Incubate at 37C, 5% CO2.
7; Detector; Fluorescence; Measure fluorescence with ViewLux microplate reader (PerkinElmer) equipped with 405/10 excitation and 540/25 emission filters.
8; Dispense; 3 uL; Dispense ONE-Glo ([…]) lucifase detection reagent was added to each well. Plates were covered with metal lids with gas-exchange holes.
9; Incubate; 15 min; Incubate at room temperature.
10; Detector; Luminescence; Measure luminescence with ViewLux microplate reader (PerkinElmer) equipped with clear filters.
NOTES (numbers refer to sequence above)
1; HEK-293-SNCA-luc were cultured and suspended in phenol-red free DMEM (4.5 g/L glucose, 25 mM HEPES, cat #21063 (Thermo)).
3; Compounds were added to the assay plate in an 11-point intra plate dose response, 1:3 titration in DMSO with a final concentration range of […]. Vehicle-only plates, with DMSO being pin-transferred to every well, were inserted at the beginning of screening runs to confirm expected assay performance. Activity was normalized to wells containing medium only (-100% activity, full inhibition) and SNCA-luc cells treated with DMSO vehicle control (0% activity), contained on the same plate as test samples.
10; Signals were analyzed, and dose-response curves were fit using the Hill equation. Compounds in curve classes -1.1, -1.2, -2.1, -2.2 in the SNCA-luc assay were considered active. Compounds were eliminated from further consideration if also active (curve class -1.1, -1.2, -1.3, -1.4, -2.1, -2.2, -2.3, -2.4) in the GF-AFC cytotoxicity assay.
Potency means the concentration at half of the fitted maximal effect; tags describe the fitted curve by direction and shape.

Compound	Potency	activity change, negative = cytotoxicity
COCCn1c(C)cc(C(=O)N2[C@H]3CC[C@@H]2c2cnc(-c4ccc(F)cc4)nc2C3)c1C	inconclusive: 25.1 µM [cytotoxic, partial curve, poor fit]	
CCOC(=O)[C@H]1CN(C(=O)OCc2ccccc2)[C@]2(C)C(=O)N(CC3CC3)c3ccccc3[C@H]12		inactive: 0.195% [at 23.9 µM]
COc1ccc(S(=O)(=O)NC[C@H]2C[C@@H]3CCN2C[C@@H]3CN2CCCCC2)cc1	inconclusive: 20 µM [cytotoxic, partial curve, poor fit]	
Cc1ccccc1-n1c(/C=C/c2ccc(N(C)C)cc2)nc2ccccc2c1=O	inconclusive: 25.1 µM [rising, partial curve]	
COc1ccc2c(c[n+](C)c3c4cc5c(cc4ccc23)OCO5)c1OC	inconclusive: 38.3 µM [cytotoxic, single point] and inconclusive: 28.2 µM [cytotoxic, partial curve, poor fit]	
Cc1nc(-c2ccccc2Br)cc([C@H]2CN3CC[C@H]2C[C@@H]3CNC(=O)c2ccc(C(C)(C)C)cc2)n1	inconclusive: 17.8 µM [cytotoxic, partial curve]	
O=C(Cc1ccc(F)cc1Cl)N1C[C@H]2CC[C@@H]1CN(Cc1cccnc1)C2		inactive: -21.4%
CC(C)(C)c1ccc(NC(=O)OC[C@H]2C[C@@H]3CCN2C[C@@H]3c2cc(C3CCCC3)nc(-c3ccncc3)n2)cc1	inconclusive: 35.5 µM [cytotoxic, single point]	
CNc1ccc2oc(C[C@H]3O[C@@]4(CC[C@H]3C)O[C@H]([C@H](C)C(=O)c3ccc[nH]3)[C@H](C)C[C@H]4C)nc2c1C(=O)O	inconclusive: 39.8 µM [cytotoxic, single point]	
O=C(O)c1ccc2[nH]cc(CCCCN3CC=C(c4ccccc4)CC3)c2c1		inactive: 31.9% [at 23.9 µM]
CCCNC(=O)N1[C@H]2CC[C@@H]1c1cnc(-c3ccc(F)cc3)nc1C2		inactive: 8.23%
COc1cc2c(cc1Oc1ccccc1)NC(=O)C21CCN(C(=O)C2CCN(C)CC2)CC1		inactive: 10.6%
O=C(NCCN1CCC2(CC1)C(=O)NCN2c1cccc(F)c1)c1ccc2ccccc2c1	inconclusive: 29.9 µM [cytotoxic, single point]	
CC[C@@H]1[C@@H](C)O[C@@](O)([C@@H](C)[C@H](O)[C@H](C)[C@H]2OC(=O)C=CC=C[C@@H](C)[C@@H]([C@@H](C)[C@@H](O)[C@H](C)[C@@]3(O)C[C@H](O[C@H]4C[C@H](O)[C@H](O)[C@H](C)O4)[C@H](CC)[C@@H](C)O3)OC(=O)C=CC=C[C@@H]2C)C[C@H]1O[C@H]1C[C@H](O)[C@H](O)[C@H](C)O1	inconclusive: 3.41 µM [cytotoxic, full curve]	
